Measured values from the supplement of paper PMC4723716.
In all, about 3,600 compounds were measured (“viability index relative to DMSO control”: median about 0.81, lowest 2% from about 0.13 on). This is one part of the list.

Each compound was assayed on Plasmodium falciparum NF54 stage V gametocytes (assay: viability index relative to DMSO control (fraction); higher = less gametocyte killing). Settings: 1.25 µM, incubation time: 72 h.
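Note: 384-well serum-free SaLSSA: MitoTracker Red CMXRos staining with saponin lysis, high-content imaging, treated-well particle count divided by plate-mean count of DMSO wells.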

Question: COc1cc(OC)c(OC)cc1CN1CCN(C(C)C)CC1 was tested. Which viability index did it give?
Answer: 0.9

Question: For CCC1CN2CCC1CC2C(O)c1ccnc2ccc(OC)cc12 (stereo unspecified), which viability index is on record?
Answer: 0.288

Question: Which viability index does the source give for OCCC1CN(Cc2cccc(Cl)c2)CCN1Cc1ccccc1 (stereo unspecified) here?
Answer: 0.856

Question: Which viability index does the source give for COc1ccc(-c2ccc(C=C3C(=O)NC(=S)NC3=O)o2)cc1Cl here?
Answer: 0.866

Question: For CN(C)c1ccc(C=C2C(=O)NC(=O)N(Cc3ccccc3Cl)C2=O)cc1, which viability index is on record?
Answer: 1.03

Question: For C[C@@H]1C[C@H]2CC[C@H](O2)[C@H](C)C(=O)O[C@@H](C)C[C@@H]2CC[C@@H](O2)[C@@H](C)C(=O)O[C@H](C)C[C@H]2CC[C@H](O2)[C@H](C)C(=O)O[C@@H](C)C[C@@H]2CC[C@@H](O2)[C@@H](C)C(=O)O1, which viability index is on record?
Answer: 0.202

Question: With CC(Cc1ccccc1)NCCCCCCCNC(C)Cc1ccccc1 (stereo unspecified) as the compound, how does the viability index read?
Answer: 0.545

Question: For Cc1ccc(-n2c(C)c(C(=O)c3ccccc3)c3cc(O)ccc32)cc1, which viability index is on record?
Answer: 1.24

Question: For CC(Cc1ccccc1Sc1ccccc1O)N(C)C (stereo unspecified), which viability index is on record?
Answer: 0.81

Question: Which viability index does the source give for CCOC(=O)c1c(CN2CCN(CC#N)CC2)n(Cc2ccccc2)c2cc(Br)c(O)cc12 here?
Answer: 1.05

Question: Which viability index does the source give for CCCCCCCc1cc(O)c2c3c(c(=O)oc2c1)CCC(C)C3 (stereo unspecified) here?
Answer: 0.587

Question: Which viability index does the source give for COc1ccc(Cn2cccc(C(=O)Nc3ccc(OC)cc3)c2=O)cc1 here?
Answer: 0.89

Question: Which viability index does the source give for CCOc1ccc2nccc([C@@H](O)[C@@H]3C[C@@H]4CCN3C[C@@H]4CC)c2c1 here?
Answer: 0.596

Question: For O=C(Cn1c2ccccc2c(=O)c2ccccc21)Nc1ccc(Cl)cc1C(=O)c1ccccc1, which viability index is on record?
Answer: 0.781

Question: For CC1(C)CN=C(NCc2ccccc2Cl)S1, which viability index is on record?
Answer: 0.894

Question: With CCN1CCN(Cc2cc(Cl)cc(Cl)c2O)CC1 as the compound, how does the viability index read?
Answer: 0.89

Question: O=C1CN=C(c2ccccc2)c2cc(Cl)ccc2N1Cc1cc(=O)n2ccccc2n1 was tested. Which viability index did it give?
Answer: 0.848

Question: COc1ccc(CC2NCC(O)C2OC(C)=O)cc1 (stereo unspecified) was tested. Which viability index did it give?
Answer: 0

Question: For O=C(c1ccccc1)c1cc(Cl)ccc1NCCBr, which viability index is on record?
Answer: 0.865

Question: For c1ccc(C2=NN(c3ccccc3)N(c3ccccc3)N2)cc1, which viability index is on record?
Answer: 0.583

Question: How did the viability index turn out when CCOc1ccc(N2C(=O)NC(=O)/C(=C\c3cn(C(C)=O)c4ccccc34)C2=O)cc1 was run?
Answer: 0.846
